Test results: patent US12221481B2, “CD19 binding molecules and uses thereof” (Novartis AG, priority 2019, dated 2025)

B1: NEG258-based TBM: TBM of Example 1A with NEG258-based CD19 binding arm; with the 16 nM CD3 ABM probably CD3hi TSP1 (antibody)
heavy: QVQLVQSGAEVKKPGASVKVSCKASGYTFTTYWIQWVRQAPGQRLEWMGAVYPGDADTRYTQKFQGRVTLTADRSASTAYMELSSLRSEDTAVYYCGRDAGLEYYALDYWGQGTLVTVSSASTKGPSVFPLAPSSKSTSGGTAALGCLVKDYFPEPVTVSWNSGALTSGVHTFPAVLQSSGLYSLSSVVTVPSSSLGTQTYICNVNHKPSNTKVDKRVEPKSCGGGGSGGGGSEVQLVESGGGLVQPGGSLKLSCAASGFTFNTYAMNWVRQASGKGLEWVGRIRSKYNNYATYYADSVKDRFTISRDDSKSTLYLQMNSLKTEDTAVYYCVRHGNFGNSYVSWFAYWGQGTLVTVSSGGGGSGGGGSGGGGSGGGGSQAVVTQEPSLTVSPGGTVTLTCRSSTGAVTTSNYANWVQQKPGQAPRGLIGGTNKRAPWTPARFSGSLLGDKAALTLSGAQPEDEAEYFCALWYSNLWVFGGGTKLTVLGGGGSDKTHTCPPCPAPELLGGPSVFLFPPKPKDTLMISRTPEVTCVVVAVSHEDPEVKFNWYVDGVEVHNAKTKPREEQYASTYRVVSVLTVLHQDWLNGKEYKCKVSNKALAAPIEKTISKAKGQPREPQVCTLPPSREEMTKNQVSLSCAVKGFYPSDIAVEWESNGQPENNYKTTPPVLDSDGSFFLVSKLTVDKSRWQQGNVFSCSVMHEALHNHYTQKSLSLSPGK
light: EIVMTQSPATLSVSPGERATLSCRASQDVGTAVAWYQQKPGQAPRLLIYWASTRHTGIPARFSGSGSGTEFTLTISSLQSEDFAVYFCQQYANFPLYTFGQGTKLEIKRTVAAPSVFIFPPSDEQLKSGTASVVCLLNNFYPREAKVQWKVDNALQSGNSQESVTEQDSKDSTYSLSSTLTLSKADYEKHKVYACEVTHQGLSSPVTKSFNRGEC
chain: SQQIYGVVYGNVTFHVPSNVPLKEVLWKKQKDKVAELENSEFRAFSSFKNRVYLDTVSGSLTIYNLTSSDEDEYEMESPNITDTMKFFLYVLESGGGGSDKTHTCPPCPAPELLGGPSVFLFPPKPKDTLMISRTPEVTCVVVAVSHEDPEVKFNWYVDGVEVHNAKTKPREEQYASTYRVVSVLTVLHQDWLNGKEYKCKVSNKALAAPIEKTISKAKGQPREPQVYTLPPCREEMTKNQVSLWCLVKGFYPSDIAVEWESNGQPENNYKTTPPVLDSDGSFFLYSKLTVDKSRWQQGNVFSCSVMHEALHNRYTQKSLSLSPGK
B2: NEG218-based TBM: TBM of Example 1A with NEG218-based CD19 binding arm; with the 16 nM CD3 ABM probably CD3hi TSP2 (antibody)
heavy: EVQLVQSGAEVKKPGESLKISCKASGYSFTNYWMNWVRQMPGKGLEWMGMIHPSDSEIRLNQKFQGQVTLSVDKSIGTAYMQWSSLKASDTAMYYCSRWYYLSSPMDYWGQGTTVTVSSASTKGPSVFPLAPSSKSTSGGTAALGCLVKDYFPEPVTVSWNSGALTSGVHTFPAVLQSSGLYSLSSVVTVPSSSLGTQTYICNVNHKPSNTKVDKRVEPKSCGGGGSGGGGSEVQLVESGGGLVQPGGSLKLSCAASGFTFNTYAMNWVRQASGKGLEWVGRIRSKYNNYATYYADSVKDRFTISRDDSKSTLYLQMNSLKTEDTAVYYCVRHGNFGNSYVSWFAYWGQGTLVTVSSGGGGSGGGGSGGGGSGGGGSQAVVTQEPSLTVSPGGTVTLTCRSSTGAVTTSNYANWVQQKPGQAPRGLIGGTNKRAPWTPARFSGSLLGDKAALTLSGAQPEDEAEYFCALWYSNLWVFGGGTKLTVLGGGGSDKTHTCPPCPAPELLGGPSVFLFPPKPKDTLMISRTPEVTCVVVAVSHEDPEVKFNWYVDGVEVHNAKTKPREEQYASTYRVVSVLTVLHQDWLNGKEYKCKVSNKALAAPIEKTISKAKGQPREPQVCTLPPSREEMTKNQVSLSCAVKGFYPSDIAVEWESNGQPENNYKTTPPVLDSDGSFFLVSKLTVDKSRWQQGNVFSCSVMHEALHNHYTQKSLSLSPGK
light: EIVMTQSPATLSVSPGERATLSCRASQDVGTAVAWYQQKPGQAPRLLIYWASTRHTGIPARFSGSGSGTEFTLTISSLQSEDFAVYFCQQYSSYPYTFGQGTKLEIKRTVAAPSVFIFPPSDEQLKSGTASVVCLLNNFYPREAKVQWKVDNALQSGNSQESVTEQDSKDSTYSLSSTLTLSKADYEKHKVYACEVTHQGLSSPVTKSFNRGEC
chain: B1 chain

Tests used:
[1] = system: cyno CD19; assay: Binding of TBMs to 300.19 cells overexpressing cyno CD19 (FACS); set-up: species or system cynomolgus; details: serial dilutions
Procedure: (§1) The mouse cell line 300.19 was engineered to overexpress either human CD19 or cyno CD19. Cells were cultured in RPMI medium (Invitrogen #11875-093) with 10% FBS and 2-mercaptoethanol. Cells were harvested and resuspended in FACS buffer (PBS containing 1% FBS). 50,000 cells per well were plated in a V-bottom 96-well plate. Each cell line was incubated with serial dilutions of TBMs of Example 1A (i.e., R variants) for one hour on ice. Cells were centrifuged for 4 min at 400×g and washed with FACS buffer. This was repeated twice, and then the cells were incubated with Alexa-647 labeled anti-human Fc secondary antibody (Jackson Immuno #109-605-098) for 30 min on ice. The cells were washed twice, then resuspended in 100 μL of FACS buffer. FACS data was collected on a Beckman Coulter Cytoflex and analysis was performed using CytExpert v2.3.

[2] = system: Nalm6 target cells; assay: Re-directed T cell cytotoxicity by CD19 TBMs, Nalm6 (Examples 7, 8); format: cell-based, human; details: E:T 3:1 or 5:1; 24-96 hr
Procedure: (§2) In one study, the TBMs were compared across multiple donor effector cells. Briefly, huCD19-expressing Nalm6 or Karpas422 target cells were engineered to overexpress firefly luciferase. Cells were harvested and resuspended in RPMI medium (Invitrogen #11875-093) with 10% FBS. 2,500 target cells per well were plated in a flat-bottom 384-well plate. Human pan T effector cells were isolated via MACS negative selection (Miltenyi Biotec #130-096-535) from two donors from cryopreserved PBMC (Cellular Technologies Limited #CTL-UP1) then added to the plate to obtain a final E:T ratio of 3:1 or 5:1. Co-cultured cells were incubated with a serial dilution of all constructs and controls. For normalization, average maximum luminescence refers to target cells co-incubated with effector cells, but without any test construct. […] Luminescence was measured on an Envision plate reader after a 10 minute incubation. Percent specific lysis was calculated using the following equation: Specific lysis (%)=(1−(sample luminescence/average maximum luminescence))*100
(§3) In one study, the TBMs were compared across multiple donor effector cells. […] For normalization, average maximum luminescence refers to target cells co-incubated with effector cells, but without any test construct. […] Luminescence was measured on an Envision plate reader after a 10 minute incubation. […]

[3] = system: cyno B cells; assay: Binding of TBMs to cyno B cells (flow cytometry); set-up: species or system cynomolgus; details: 1 ug/mL, gated on CD20 positive population
Procedure: Cynomolgus (cyno) PBMCs (iQ Biosciences #IQB-MnPB102) were depleted of CD3+ cells using MACS positive selection (Miltenyi #130-092-012). The remaining cell population was resuspended in a FACS buffer. 100,000 cells per well were plated in a V-bottom 96-well plate, and incubated on ice for one hour with TBMs of Example 1A (i.e., R variants) at 1 ug/mL. Following two washes with FACS buffer, the cells were incubated with Alexa-647 labeled anti-human Fc secondary antibody (Jackson Immuno #109-605-098) and cyno cross reactive FITC mouse anti-human CD20 antibody (BD Pharmingen #556632) for one hour on ice. Following two washes with FACS buffer, cells were resuspended in 100 μL of buffer and data was collected on a Beckman Coulter Cytoflex. Cells were analyzed using CytExper v2.3 and gated through CD20 positive population.

[4] = system: Karpas422 target cells; assay: Re-directed T cell cytotoxicity by CD19 TBMs, Karpas422 (Examples 7, 8); format: cell-based, human; details: E:T 3:1 or 5:1; 24-96 hr
Procedure: as §2, §3

[5] = target: T1, human CD19 (Homo sapiens, UniProt P15391); assay: Binding of TBMs to 300.19 cells overexpressing human CD19 (FACS); details: serial dilutions
T1 construct: expressed in transfected cells; host or cells: mouse cell line 300.19
T1 sequence (P15391 20-556): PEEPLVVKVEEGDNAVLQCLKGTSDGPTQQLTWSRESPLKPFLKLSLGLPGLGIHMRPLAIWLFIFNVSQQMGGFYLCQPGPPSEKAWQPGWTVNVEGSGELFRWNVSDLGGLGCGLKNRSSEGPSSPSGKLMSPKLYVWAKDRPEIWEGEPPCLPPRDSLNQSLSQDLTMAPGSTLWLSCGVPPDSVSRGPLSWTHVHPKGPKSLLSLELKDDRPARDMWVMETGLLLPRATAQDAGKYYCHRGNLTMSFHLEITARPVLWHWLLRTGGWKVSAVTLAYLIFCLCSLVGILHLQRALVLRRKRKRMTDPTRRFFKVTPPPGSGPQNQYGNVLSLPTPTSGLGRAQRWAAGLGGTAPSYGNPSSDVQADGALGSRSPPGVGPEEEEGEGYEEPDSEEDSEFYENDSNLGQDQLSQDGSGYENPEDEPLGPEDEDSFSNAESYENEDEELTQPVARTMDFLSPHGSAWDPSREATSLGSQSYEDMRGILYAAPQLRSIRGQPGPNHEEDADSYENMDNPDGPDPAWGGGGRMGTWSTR
Procedure: as §1

[6] = system: T cells; assay: Cytokine release assay with Nalm6 target cells (Example 10); format: cell-based, human; details: E:T 5:1, 24 hr
Procedure: Briefly, huCD19-expressing Nalm6 target cells were harvested and resuspended in RPMI medium with 10% FBS. 20,000 target cells per well were plated in a flat-bottom 96-well plate. Human pan T effector cells were isolated via MACS negative selection from cryopreserved PBMC then added to the plate to obtain a final E:T ratio of 5:1. Co-cultured cells were incubated with serial dilutions of all constructs and controls. After an incubation of 24 hr at 37° C., 5% CO2, the supernatants were harvested by centrifugation at 300×g for 5 min for subsequent analysis.
A multiplexed ELISA was performed according to the manufacturer's instructions using a V-PLEX Proinflammatory Panel 1 Kit (MesoScale Discovery #K15049D).

Molecule | binding to cells overexpressing cyno CD19 [1] | cytotoxic potency compared between TBMs [2] | binding to cyno B cells [3] | cytotoxic potency compared between TBMs [4] | binding to cells overexpressing human CD19 [5] | cytokine secretion by T cells (IFN-γ, TNF-α, IL2) [6]
B1 | bind to cell lines engineered to overexpress both human and cyno CD19 | more potent than the NEG218-based TBM | bind to cyno B cells | more potent than the NEG218-based TBM | bind to cell lines engineered to overexpress both human and cyno CD19 | induce significant cytokine secretion
B2 | bind to cell lines engineered to overexpress both human and cyno CD19 | – | bind to cyno B cells | – | bind to cell lines engineered to overexpress both human and cyno CD19 | induce significant cytokine secretion
